{"source": "the supplement of paper PMC4723716", "note": "In all, about 3,600 compounds were measured (“viability index relative to DMSO control”: median about 0.81, lowest 2% from about 0.13 on). The list shows a part of the results.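 Note: 384-well serum-free SaLSSA: MitoTracker Red CMXRos staining with saponin lysis, high-content imaging, treated-well particle count divided by plate-mean count of DMSO wells.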"}
{"system": "Plasmodium falciparum NF54 stage V gametocytes", "experiment": "viability index relative to DMSO control (fraction); higher = less gametocyte killing", "settings": "1.25 µM, incubation time: 72 h"}
{"molecule": "COc1cc(OC)c(OC)cc1CN1CCN(C(C)C)CC1", "viability index": 0.9}
{"molecule": "CCC1CN2CCC1CC2C(O)c1ccnc2ccc(OC)cc12", "note": "(stereo unspecified)", "viability index": 0.288}
{"molecule": "OCCC1CN(Cc2cccc(Cl)c2)CCN1Cc1ccccc1", "note": "(stereo unspecified)", "viability index": 0.856}
{"molecule": "COc1ccc(-c2ccc(C=C3C(=O)NC(=S)NC3=O)o2)cc1Cl", "viability index": 0.866}
{"molecule": "CN(C)c1ccc(C=C2C(=O)NC(=O)N(Cc3ccccc3Cl)C2=O)cc1", "viability index": 1.03}
{"molecule": "C[C@@H]1C[C@H]2CC[C@H](O2)[C@H](C)C(=O)O[C@@H](C)C[C@@H]2CC[C@@H](O2)[C@@H](C)C(=O)O[C@H](C)C[C@H]2CC[C@H](O2)[C@H](C)C(=O)O[C@@H](C)C[C@@H]2CC[C@@H](O2)[C@@H](C)C(=O)O1", "viability index": 0.202}
{"molecule": "CC(Cc1ccccc1)NCCCCCCCNC(C)Cc1ccccc1", "note": "(stereo unspecified)", "viability index": 0.545}
{"molecule": "Cc1ccc(-n2c(C)c(C(=O)c3ccccc3)c3cc(O)ccc32)cc1", "viability index": 1.24}
{"molecule": "CC(Cc1ccccc1Sc1ccccc1O)N(C)C", "note": "(stereo unspecified)", "viability index": 0.81}
{"molecule": "CCOC(=O)c1c(CN2CCN(CC#N)CC2)n(Cc2ccccc2)c2cc(Br)c(O)cc12", "viability index": 1.05}
{"molecule": "CCCCCCCc1cc(O)c2c3c(c(=O)oc2c1)CCC(C)C3", "note": "(stereo unspecified)", "viability index": 0.587}
{"molecule": "COc1ccc(Cn2cccc(C(=O)Nc3ccc(OC)cc3)c2=O)cc1", "viability index": 0.89}
{"molecule": "CCOc1ccc2nccc([C@@H](O)[C@@H]3C[C@@H]4CCN3C[C@@H]4CC)c2c1", "viability index": 0.596}
{"molecule": "O=C(Cn1c2ccccc2c(=O)c2ccccc21)Nc1ccc(Cl)cc1C(=O)c1ccccc1", "viability index": 0.781}
{"molecule": "CC1(C)CN=C(NCc2ccccc2Cl)S1", "viability index": 0.894}
{"molecule": "CCN1CCN(Cc2cc(Cl)cc(Cl)c2O)CC1", "viability index": 0.89}
{"molecule": "O=C1CN=C(c2ccccc2)c2cc(Cl)ccc2N1Cc1cc(=O)n2ccccc2n1", "viability index": 0.848}
{"molecule": "COc1ccc(CC2NCC(O)C2OC(C)=O)cc1", "note": "(stereo unspecified)", "viability index": 0}
{"molecule": "O=C(c1ccccc1)c1cc(Cl)ccc1NCCBr", "viability index": 0.865}
{"molecule": "c1ccc(C2=NN(c3ccccc3)N(c3ccccc3)N2)cc1", "viability index": 0.583}
{"molecule": "CCOc1ccc(N2C(=O)NC(=O)/C(=C\\c3cn(C(C)=O)c4ccccc34)C2=O)cc1", "viability index": 0.846}
